The text below walks through data of ChEMBL document CHEMBL4888484, “Replenishing the malaria drug discovery pipeline: Screening and hit evaluation of the MMV Hit Generation Library 1 (HGL1) against asexual blood stage Plasmodium falciparum ,using a nano luciferase reporter read-out” (2022).

For orientation: % Inhibition means the relative decrease from the control value, in per cent.

About 540 (0.36%) of roughly 150,000 compounds showed an effect of 50% or more. Some of the results follow.

This experiment deals with Plasmodium falciparum. Nature of the experiment: Primary screen in NF54 nanoGlo assay, in single point, at 2uM, 72h; a lower Z score goes with more inhibition. The class given is functional, Erythrocyte. The note with it: timepoint 72 hour.
On to `OC[C@@H]1[C@@H](Cc2ccnc(-c3cccnc3)n2)[C@H](NCc2ccccc2F)C[C@H]1O`, for which the “% Inhibition” value is on record as -6% and the Z score is 1.11.
Regarding `CC(=O)N(c1ccccc1)[C@H]1C[C@@H](C)N(C(=O)C(F)(F)F)c2ccccc21`, the “% Inhibition” value is 38% and the Z score is -1.27.
For the compound `Cc1ccccc1Cn1cnc2c1c(=O)n(CCc1ccccc1)c(=O)n2-c1ccc(Cl)cc1`, the “% Inhibition” value is given as -14% and the Z score was 1.71.
For `Cc1ccccc1OCC(=O)Nc1cnn(C)c(=O)c1N1CCOCC1`, the “% Inhibition” value is -4% and the Z score amounted to 0.73.
For `C[C@H](Nc1ncnc2ncccc12)c1ccc(Cl)c(Cl)c1`, the “% Inhibition” value was -7% and the Z score was 1.22.
Consider `Cn1cnnc1[C@H]1CCCN(c2ncncc2-c2ccccc2)C1`, for which the “% Inhibition” value was -14% and the Z score came to 1.71.
On to `CCc1ccc(-c2nc(C)c(C(=O)N3CC[C@@H](N)C3)s2)cc1`, for which the “% Inhibition” value was -11% and the Z score is given as 1.8.
For `CNC(=O)c1[nH]nc2c1CN(C(=O)c1ccc(OC)o1)CC2`, the “% Inhibition” value was -9% and the Z score was determined as 1.13.
Turning to `c1c[nH]c(-c2cn(Cc3n[nH]c4c3CCCCC4)nn2)n1`, the “% Inhibition” value is listed as -11% and the Z score stood at 1.27.
Consider `CS(=O)(=O)c1ccc(-c2c(-c3ccccc3)ncn2Cc2ccon2)cc1`, for which the “% Inhibition” value amounted to 2% and the Z score was -0.17.
For `COc1ccc2c(c1)CN(C(=O)c1ccnn1C)[C@H](c1ccccc1)C2`, in that order: 2% and -0.22.
`CC(C)(C)OC(=O)NC[C@H]1CCN(C(=O)c2n[nH]c3ccccc23)C1`: the “% Inhibition” value was -4% and the Z score amounted to 0.56.
On to `CCn1nccc1CNC(=O)N1CCC[C@H](C2CCCC2)C1`, for which the “% Inhibition” value was -3% and the Z score came to 0.52.
Take `C[C@H](NC(=O)NC1(C(N)=O)CCCC1)c1cccc2ccccc12`: the “% Inhibition” value is -10% and the Z score was found to be 1.03.
As for `O=S(=O)(Nc1noc(C2CC2)n1)c1c[nH]c(C(F)(F)F)c1`, the “% Inhibition” value was 2% and the Z score was -0.28.
The like results for `CC1CN(c2ccc3ccccc3n2)CC1N1CCOCC1` (stereo unspecified) were, in that order, 1% and -0.11.
For `O=C(c1cc2ccccc2s1)N1C2CCC1CC(F)C2` (stereo unspecified), in that order: -18% and 2.12.
Consider `O=C(O)Cc1ccc(-c2cccc3c2CCNC3)nc1`, for which the “% Inhibition” value stood at 3% and the Z score is reported as -0.62.
Consider `Cc1n[nH]c(C)c1CCn1cc(-c2cccc(C#N)c2)nn1`, for which the “% Inhibition” value is -5% and the Z score amounted to 1.03.
Regarding `CC1c2ccccc2OC1C(=O)Nc1csc(-c2ccncc2)n1` (stereo unspecified), the “% Inhibition” value is recorded as -8% and the Z score was 1.15.
In the case of `Cc1ccc(F)cc1C(=O)Nc1ccc(O[C@H]2CCOC2)cc1`, the “% Inhibition” value was -5% and the Z score came to 0.84.
For `CC[C@@H](C(=O)NCc1ccco1)n1c(Cc2ccc(Cl)c(Cl)c2)nc2ccccc21`, in that order: -5% and 0.7.
As for `O=C(NCc1cn(-c2ccsc2)nn1)NCc1cccs1`, the “% Inhibition” value was found to be 11% and the Z score is given as -1.78.
As to `COCCCNC(=O)N(C)Cc1ccc(OC)c(C)c1`, the “% Inhibition” value was -3% and the Z score was 0.41.
For `O=C(Cn1ccc2ccccc2c1=O)N(CC(F)(F)F)C1CCC1`, in that order: -7% and 1.06.
With `O=c1[nH]cc(-c2nc(Cc3cccc(Cl)c3)nn2CCO)cc1Cl`, the “% Inhibition” value came out at 9% and the Z score was -1.53.
With `Cn1ccc2c(-c3cncc(C(=O)N4CCCCC4)n3)ccnc21`, the “% Inhibition” value worked out at 9% and the Z score was -1.18.
With `c1ccc(-c2nc(-c3nccn3CCCn3cccn3)co2)cc1`, the “% Inhibition” value was -6% and the Z score came out at 0.81.
For `CC(C)CNC(=O)c1cc2cc(NS(=O)(=O)c3ccc(C(C)(C)C)cc3)ccc2n1Cc1ccc(C(C)(C)C)cc1`, the “% Inhibition” value was found to be 2% and the Z score is -0.24.
`CC(C)CC(C)OC(=O)N1CCC(c2nncn2C)C1` (stereo unspecified): the “% Inhibition” value is on record as -11% and the Z score is listed as 1.12.
Take `Cc1nnnn1CC(=O)NC[C@@H]1COc2ccccc2C1`: the “% Inhibition” value is -4% and the Z score is reported as 0.49.
As for `CC[C@H](O)c1cc2n(n1)CCN(c1cc(C)nc3ccc(F)cc13)C2`, the “% Inhibition” value is -10% and the Z score is listed as 2.
Take `CC(=O)Nc1cc(-c2nc(-c3ccc4c(c3)ncn4CCC(=O)N3CCCCCC3)no2)ccc1C`: the “% Inhibition” value is -20% and the Z score is given as 2.58.
As for `CCN1CCN(C2(C(=O)N3CCC[C@H](COC)C3)Cc3ccccc3C2)CC1`, the “% Inhibition” value is -12% and the Z score is on record as 1.4.
As for `Cc1c(-c2ccccc2)n[nH]c1-c1nc(C(C)C)n[nH]1`, the “% Inhibition” value is reported as -7% and the Z score is listed as 0.84.
On to `CC1=CCC2COC(c3ccccn3)C1C2` (stereo unspecified), for which the “% Inhibition” value was -11% and the Z score came out at 1.43.
For the compound `CC(=O)NCCC(=O)Nc1cc(C)nn1[C@@H](C)C1CC1`, the “% Inhibition” value is reported as 0% and the Z score was 0.07.
For the compound `C[C@@H](CNC(=O)c1ccsc1)NC(=O)OC(C)(C)C`, the “% Inhibition” value was -1% and the Z score is recorded as 0.05.
For the compound `COC(CNC(=O)c1ccc(-n2cncn2)nn1)OC`, the “% Inhibition” value is recorded as -15% and the Z score is recorded as 1.89.
For the compound `CC(NC(=O)N[C@@H]1CCc2cc(F)ccc21)c1ccn(C)n1` (stereo partly specified), the “% Inhibition” value was found to be 1% and the Z score was -0.22.
Consider `O=C(NCC(F)F)c1ccc2c(c1)n(CC1CC1)c(=O)n2C1CCCCC1`, for which the “% Inhibition” value is reported as 26% and the Z score was -3.33.
With `COCCn1cc(N[C@@H](C)c2nnc(-c3ccc(C)cc3)o2)cn1`, the “% Inhibition” value is -4% and the Z score stood at 0.5.
In the case of `Cc1cccc(CN2CCC[C@@](O)(CNC(C)(C)c3ccccc3)C2=O)c1`, the “% Inhibition” value was -5% and the Z score is 0.57.
For `NC(=O)c1ccc(-c2nc3c(c(=O)[nH]2)CCN(c2ncc(F)cn2)C3)cc1`, in that order: -6% and 0.56.
For `CCc1nc(C)c([C@H](C)N(C)CCS(=O)(=O)CC)s1`, the “% Inhibition” value came out at 3% and the Z score was -0.48.
For the compound `CCOc1ccc(NC(=O)C2CCN(c3nc4nc[nH]c(=O)c4s3)CC2)cc1`, the “% Inhibition” value is -27% and the Z score stood at 2.35.
Consider `Cc1cscc1C(=O)N1CCC2CCC(C1)N2C(C)C` (stereo unspecified), for which the “% Inhibition” value is on record as -7% and the Z score stood at 0.94.
As to `COc1ccc(CN2C[C@@H]3Oc4ncccc4C(=O)N(C)[C@@H]3C2)cc1`, the “% Inhibition” value is reported as -3% and the Z score worked out at 0.37.
As for `CN(Cc1nc(-c2ccccn2)no1)C[C@]1(O)CCCN2CCCC[C@@H]21`, the “% Inhibition” value is listed as -5% and the Z score is 0.76.
For the compound `CN(C(=O)C1CCN(C2CCN(c3nc4ccccc4o3)CC2)CC1)[C@H]1CCOC1`, the “% Inhibition” value is -4% and the Z score is reported as 0.66.
In the case of `CCC(C)N1C(=O)CCC1c1c(-c2cccc(OC)c2)n(C)c2ccccc12` (stereo unspecified), the “% Inhibition” value is 35% and the Z score is -3.99.
As for `CCCCn1nnnc1CN1C[C@H](C)c2ccccc21`, the “% Inhibition” value is on record as -4% and the Z score came out at 0.49.
Consider `Cc1cc(O)c(OCC(=O)/N=c2\[nH]c(C)c(C)s2)cn1`, for which the “% Inhibition” value is given as -12% and the Z score stood at 1.55.
